Experimental data taken from PubChem BioAssay AID1745853 (National Center for Advancing Translational Sciences (NCATS), 2022).
The other results are listed elsewhere or left out. These are further read-outs of the screen, such as a control signal, another cell line or another target. No call is given for them.

Experiments:
Assay in all cases: Primary Screen for Target Class Profiling of Small Molecule Inhibitors of Methyltransferases
[1] = target: Glycine N-methyltransferase (Homo sapiens) (UniProt Q14749); settings: purified enzyme, MTase-Glo SAH luminescence; measured here: GNMT inhibition; at 40 µM; stronger effect = lower value
Procedure, shortened: (§1)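 Each enzyme was assayed with SAM and its substrate. SAH formation detected by MTase-Glo luminescence; single-point 40 uM screen[…].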

[2] = target: Guanidinoacetate N-methyltransferase (Homo sapiens) (UniProt Q14353); settings: purified enzyme, MTase-Glo SAH luminescence; measured here: GAMT inhibition; at 40 µM; stronger effect = lower value
Procedure, shortened: as §1

[3] = target: Histamine N-methyltransferase (Homo sapiens) (UniProt P50135); settings: purified enzyme, MTase-Glo SAH luminescence; measured here: HNMT inhibition; at 40 µM; stronger effect = lower value
Procedure, shortened: as §1

[4] = target: Nicotinamide N-methyltransferase (Homo sapiens) (UniProt P40261); settings: purified enzyme, MTase-Glo SAH luminescence; measured here: NNMT inhibition; at 40 µM; stronger effect = lower value
Procedure, shortened: as §1

[5] = target: Phenylethanolamine N-methyltransferase (Homo sapiens) (UniProt P11086); settings: purified enzyme, MTase-Glo SAH luminescence; measured here: PNMT inhibition; at 40 µM; stronger effect = lower value
Procedure, shortened: as §1
% is scaled to controls: 0 for no effect and ±100 for the full control effect.

Row | SMILES | activity change, negative = inhibition [1] [%] | activity change, negative = inhibition [2] [%] | activity change, negative = inhibition [3] [%] | activity change, negative = inhibition [4] [%] | activity change, negative = inhibition [5] [%]
1 | CC(C)CCNC(=O)N1CCn2cccc2C1C(C)C (stereo not given) | 0.196 | 4.87 | -6.29 | -4.4 | 0.065
2 | CCc1ccccc1NC(=O)N1CCC(Oc2ncccc2NC)C1 (stereo not given) | -2.49 | 0.03 | -1.34 | -3.84 | 0.592
3 | Cc1cnc(CCNS(=O)(=O)c2cn(C)cn2)n1C1CCC1 | -3.03 | -3.16 | -0.032 | -4.28 | 0.617
4 | CCC(=O)N1CCc2cc(OC)c(O)cc2C1 | -1.65 | -1.17 | -5.43 | -14.9 | -7.17
5 | O=C(NC1CCN(c2nnc3ccccn23)CC1)c1ccc(Cl)s1 | -8.67 | 0.206 | -1.82 | -5.5 | 11.4
6 | COc1cccc2c1[C@@H]1CN(CCCCn3c(=O)[nH]c4c(sc5ncc(-c6ccccc6)nc54)c3=O)C[C@@H]1CO2 | -2.58 | 0.686 | -2.63 | -5.8 | 6.31
7 | COc1ccc(NC(=O)N2CCn3c(C)ccc3C2C(C)C)cc1 (stereo not given) | 0.905 | 0 | -5.97 | -5.09 | -3.86
8 | Cc1cc2c(N3CCCC3)nc(N3CCCC3)nc2n1C | -88.1 | -1.36 | -27.6 | -20.9 | -8.39
9 | O=C([C@@H](Cc1cccc(C(F)(F)F)c1)NS(=O)(=O)c1cc(F)c2c(c1)CCNC2)N1CCCC1 | -3.4 | -7.03 | 5.38 | -19 | -3.71
10 | COc1c2ccoc2cc2oc(CO[C@@H]3O[C@H](CO)[C@@H](O)[C@H](O)[C@H]3O)cc(=O)c12 | -5.33 | -8.26 | 1.71 | -16.1 | -6.36
11 | CN1C(=O)c2cc(C(=O)NCc3cccc(F)c3)nn2CC1(C)C(=O)NC1CCCCC1 (stereo not given) | -2.01 | -5.06 | -1.79 | -8.35 | -7.34
12 | CCC(C)/C=C(C)/C=C/C1=CC2=C(Cl)C(=O)C(C)(OC(C)=O)C(=O)C2=CN1C(CCC(=O)O)C(=O)O (stereo not given) | -1.11 | -3.53 | -1.05 | -15 | -4.34
13 | COCCCNC(=O)c1cnc2c(c1)N(C(=O)Cc1cn(C)c3ccccc13)CCC2 | -3.74 | -6.58 | -0.674 | -11 | -5.89
14 | CN1CCCCCCN(C(=O)Cc2c[nH]c3ccccc23)[C@H]2CCC[C@H]2C1=O | -5.98 | -8.61 | -2.23 | -14.4 | -8.92
15 | CC1(C(=O)NC2CCCCCCC2)Cn2c(ccc2-c2ccco2)C(=O)N1Cc1ccccc1F (stereo not given) | -8.43 | 0.021 | -3.78 | -15.9 | -5.89
16 | CC(C)NC(=O)c1ccc2c(=O)n(Cc3ccccc3)c3nn(Cc4ccc(F)cc4Cl)c(=O)n3c2c1 | 1.46 | 5.25 | -0.229 | -1.48 | -2.31
17 | O=C(CCCc1nnc2n3nc(-c4ccccc4)nc3c3ccccc3n12)NCCN1CCCC1 | -8.68 | 1.19 | -59.2 | 5.87 | -4.28
18 | CC(C)CNC(=O)c1ccc2c(=O)n(Cc3ccccc3)c3nn(CC(N)=O)c(=O)n3c2c1 | -1.42 | 0 | 0.745 | -10.2 | 1.26
19 | COc1ccc(NC(=O)CSc2nnc3n(CC(C)C)c(=O)c4cc(F)ccc4n23)cc1OC | 0.71 | 4.48 | 3.99 | 0.881 | 1.94
20 | COc1ccc(NC(=O)Cn2nc3n(CCc4ccccc4)c(=O)c4ccccc4n3c2=O)cc1 | 8.27 | 2.9 | 11 | 3.16 | 6.22
21 | CC1(C)CC(CC(=O)N2CCCCC2)(c2ccccc2)CCO1 (stereo not given) | -5.13 | 3.25 | 1.33 | 5.43 | -0.898
22 | CC1(C)CC[C@]2(C(=O)O[C@@H]3O[C@H](CO)[C@@H](O)[C@H](O)[C@H]3O)CC[C@]3(C)C(=CCC4[C@@]5(C)C[C@H](O)[C@H](O[C@@H]6OC[C@@H](O)[C@H](O)[C@H]6O)[C@@](C)(CO)C5CC[C@]43C)C2C1 (stereo not given in full) | 6.93 | 5.93 | 9.56 | -6.05 | 10.6
23 | Cc1ccc(Nc2c(F)cccc2Cl)c(CC(=O)O)c1 | -5.3 | -8.18 | -0.35 | -24.8 | -4.83
24 | O=C(CCc1nnc2n(Cc3ccccc3Cl)c(=O)c3ccccc3n12)NCCc1c[nH]c2ccccc12 | -3.37 | 2.59 | -32.6 | -3.27 | -4.84
25 | CCN1C(=O)C2CC3(CCN(S(C)(=O)=O)CC3)CN2C1=O (stereo not given) | -4.02 | -10 | -5.46 | -11.5 | -12.1
26 | Cc1cccc(Cn2nc3n(CCC(C)C)c(=O)c4ccc(C(=O)NC(C)C)cc4n3c2=O)c1 | -0.221 | -0.929 | 14.2 | 0.584 | -2.28
27 | CCc1nnc(CN(CC)C(=O)c2cc(S(N)(=O)=O)ccc2F)o1 | 0.271 | -1.63 | 0.164 | -2.43 | 0.203
28 | COC(=O)c1ncn2c1C(=O)N(c1ccc(C)c(C)c1)C(C)(C(=O)NCCCOC(C)C)C2 (stereo not given) | 4.98 | 0 | 14.3 | 5.27 | 9.4
29 | CCN(CC)CCCN1C(=O)c2cc3occc3n2CC1(C)C(=O)NC1CCCCCC1 (stereo not given) | -1.81 | -3.36 | 5.19 | 1.15 | -1.37
